# The supplement of paper PMC4166925
# ± gives the standard deviation of the averaged measurements. The full ranking holds about 33,000 sequences; the median of “E-score (dimensionless, -0.5 to 0.5)” is about -0.049, and the highest 2% start at about 0.37. The list shows a part of the results.
# System: T1, PmTbr T-box DNA-binding domain (GST fusion)
# T1 sequence: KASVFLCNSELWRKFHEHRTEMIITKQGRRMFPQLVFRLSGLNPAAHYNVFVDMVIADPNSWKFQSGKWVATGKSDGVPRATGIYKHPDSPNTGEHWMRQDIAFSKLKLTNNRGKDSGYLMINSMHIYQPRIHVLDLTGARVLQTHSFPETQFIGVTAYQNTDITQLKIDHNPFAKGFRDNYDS
# Assay: PBM E-score of 8-mer (E-score (dimensionless, -0.5 to 0.5)); Tbr is Tbrain of the sea star Patiria miniata (Pm) or the sea urchin Strongylocentrotus purpuratus (Sp); higher = stronger binding preference; most listed sequences are background and not binding sites
# Settings: the construct has about 5 more residues each side
# Method in brief: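 GST-fused Tbr T-box DNA-binding domains (the whole T-box plus about five flanking residues) were expressed in BL21 E. coli at 20 °C and purified by glutathione affinity chromatography. Universal Agilent oligonucleotide arrays were made double-stranded by primer extension, incubated with 200 nM protein in PBS (pH 7.5), then scanned and quantified. Every ungapped 8-mer was scored from probe intensities. The Universal PBM Analysis Suite gave each word an enrichment E-score, averaged over duplicate arrays.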
row,Sequence,PBM E-score of 8-mer
1,CACTCGGG,0.136 ± 0.014
2,CCCCAGCG,-0.0927 ± 0.023
3,TACCCCAA,-0.195 ± 0.0089
4,AACGAGAC,-0.103 ± 0.016
5,CATACAAA,-0.208 ± 0.0044
6,AGGTGCTG,0.414 ± 0.019
7,AAAATTAG,0.0885 ± 0.052
8,AGATTGCC,0.171 ± 0.03
9,CGACAATA,0.0899 ± 0.059
10,CATCCGTC,0.0644 ± 0.028
11,TCGCATAA,0.0968 ± 0.016
12,GTGATACA,0.225 ± 0.042
13,ATTAGCCC,-0.168 ± 0.041
14,ATGCCTGA,-0.1085 ± 0.00094
15,GTCCTTCA,-0.179 ± 0.011
16,CTCCCAAG,-0.0536 ± 0.046
17,AAACTGAA,-0.132 ± 0.06
18,ACGACCGG,-0.111 ± 0.13
19,ATTATGTG,0.144 ± 0.028
20,AAGGGTTC,-0.347 ± 0.0053
21,ACTTATTG,-0.142 ± 0.052
22,ATGTCGTC,-0.152 ± 0.032

row,Sequence,PBM E-score of 8-mer
1,ACTTCGCC,-0.00129 ± 0.099
2,CCTTTACA,0.0882 ± 0.037
3,CCACGATA,-0.0627 ± 0.0064
4,CGAGTTCA,0.167 ± 0.047
5,AAGGATAC,-0.163 ± 0.086
6,GGGCCTAA,-0.148 ± 0.024
7,ACCTCGTG,0.213 ± 0.013
8,CTCTAATA,-0.232 ± 0.027
9,AACAGCCA,-0.0762 ± 0.0058
10,AATGACCT,-0.176 ± 0.042
11,ATTGGAAC,0.0463 ± 0.024
12,CTCTGTTA,0.0548 ± 0.021
13,CCATGGAA,-0.198 ± 0.016
14,GTGTGGAA,0.353 ± 0.021
15,TAGTATCA,0.0588 ± 0.082
16,AGGTGATG,0.4179 ± 0.0014
17,GAAAGGAA,-0.11 ± 0.021
18,CTACATCA,-0.196 ± 0.047
19,GCACTGTA,-0.0517 ± 0.041
20,CTGACCAG,-0.247 ± 0.03
21,AGCGAGAG,0.0436 ± 0.013
22,ATAGACGG,-0.276 ± 0.0086

row,Sequence,PBM E-score of 8-mer
1,AGTAGAGG,-0.0849 ± 0.094
2,TAACTGTA,-0.156 ± 0.02
3,AGTTACGC,-0.0446 ± 0.027
4,GCCACGAC,-0.0614 ± 0.052
5,TACAAATA,-0.123 ± 0.0095
6,AAAGACAT,-0.199 ± 0.028
7,AGCCCGCT,-0.0831 ± 0.14
8,CGACCATA,0.00341 ± 0.022
9,ATACGTCG,-0.139 ± 0.071
10,GGTATTAA,0.0101 ± 0.018
11,AGACTGAG,-0.0413 ± 0.013
12,CGGACCAC,-0.19 ± 0.016
13,CATTTGTA,-0.119 ± 0.1
14,AAAGTTAC,-0.121 ± 0.077
15,AGGGGCAT,-0.304 ± 0.039
16,CGAACTAA,-0.078 ± 0.081
17,CGCCTGCA,0.142 ± 0.04
18,ACGGACTG,-0.095 ± 0.026
19,AAAAACCA,0.0231 ± 0.006
20,GGAAATCC,-0.15 ± 0.079
21,GACGACGA,0.17 ± 0.0082
22,CATGTGAG,0.14 ± 0.046

row,Sequence,PBM E-score of 8-mer
1,GCGATAAC,0.283 ± 0.012
2,CCGTATGC,-0.176 ± 0.039
3,AACCTAAG,-0.12 ± 0.084
4,GCGCGACC,0.2651 ± 0.0023
5,GTCCATGA,-0.052 ± 0.031
6,CAGAAGGA,-0.1363 ± 0.00032
7,AACAGATG,-0.134 ± 0.028
8,CAGTTAAA,-0.159 ± 0.11
9,AGCCCTCG,-0.233 ± 0.059
10,TTCTTAAA,-0.246 ± 0.095
11,AAACAAAA,-0.171 ± 0.098
12,TACCTAGA,-0.0455 ± 0.092
13,CCCGCAAA,0.00826 ± 0.029
14,AACTAGGG,0.0438 ± 0.029
15,ACAAAAAA,0.0209 ± 0.1
16,CTCGCCTA,0.0764 ± 0.047
17,CACTGTCA,0.261 ± 0.042
18,CAGGAAAA,0.0531 ± 0.058
19,CGCGAGAA,0.32 ± 0.0046
20,AGCCTCAT,-0.301 ± 0.043
